Source: PubChem BioAssay AID624330 (Southern Research Specialized Biocontainment Screening …, 2012)
About 2,100 (0.62%) of roughly 340,000 compounds were called active. The shares of active, inactive and inconclusive entries below differ from those in the screen.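 The calls were made as follows: active = first-screen hits whose inhibition reached a set limit at any dose in the follow-up dose series; inconclusive = inhibition above the set first-screen limit but never retested; inactive = the rest.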

The compounds below were run against Rac GTPase-activating protein 1 (Homo sapiens) (UniProt Q9H0H5) (assay: blockers of MgcRacGAP-driven Rac1 GTP hydrolysis – biochemical, ADP Hunter fluorescence, primary and confirmatory, confirmation (AID 624330;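 also: fluorescence reports GDP produced by GAP-driven GTP hydrolysis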)). Conditions: MgcRacGAP-stimulated Rac1 GTP hydrolysis, at 30 µM, active compounds read high, GST-tagged Rac1 F28L mutant substrate.
UniProt Q9H0H5, sequence (Q9H0H5 whole entry, looked up): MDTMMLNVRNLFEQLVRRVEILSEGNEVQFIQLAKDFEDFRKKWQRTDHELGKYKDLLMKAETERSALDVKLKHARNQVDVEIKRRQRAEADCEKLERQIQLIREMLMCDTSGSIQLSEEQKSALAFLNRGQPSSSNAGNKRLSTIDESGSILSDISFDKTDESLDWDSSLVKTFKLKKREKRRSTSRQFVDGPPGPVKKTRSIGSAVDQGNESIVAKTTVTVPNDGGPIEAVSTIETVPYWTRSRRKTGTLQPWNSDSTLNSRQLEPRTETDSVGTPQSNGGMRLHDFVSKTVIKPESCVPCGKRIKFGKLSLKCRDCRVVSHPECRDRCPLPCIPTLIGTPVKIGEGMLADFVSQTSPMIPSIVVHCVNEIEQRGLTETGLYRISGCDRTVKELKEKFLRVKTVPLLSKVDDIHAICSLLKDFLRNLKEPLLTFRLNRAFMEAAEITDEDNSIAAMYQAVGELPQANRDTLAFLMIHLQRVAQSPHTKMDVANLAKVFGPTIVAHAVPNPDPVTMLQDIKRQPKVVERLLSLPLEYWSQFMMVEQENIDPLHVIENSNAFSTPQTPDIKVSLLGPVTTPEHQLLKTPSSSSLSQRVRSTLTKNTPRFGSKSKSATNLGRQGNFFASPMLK
With `Cc1cc(O)ccc1NS(=O)(=O)c1ccc2c3c(cccc13)C(=O)N2` the inhibition was inconclusive: 37.7%. In the case of `O=C(OCC(=O)N1CCc2ccccc2C1)c1c(F)cccc1Cl`, the inhibition is reported as inactive: 4.76%. In the case of `COc1ccc(Cl)cc1NC(=O)CN(C)C(=O)CCCNC(=O)c1ccc(Cl)cc1`, the inhibition is reported as inactive: -0.09%. With `CC(=O)Nc1nc(C)c(-c2csc(Nc3ccc(O)cc3)n2)s1` the inhibition was inconclusive: 84.8%. For `O=c1ccsn1Cc1ccccc1`, the inhibition was inconclusive: 41.3%. For `CN1CCN(C2=C(Cl)C(=O)C(c3cnc(N4CCCCC4)s3)=C(Cl)C2=O)CC1`, the inhibition was inconclusive: 35.9%. `COc1ccc(-c2c(-c3ccc(O)cc3O)n[nH]c2C)cc1OC` was tested, and the inhibition was inconclusive: 72%. In the case of `COc1cc(/C=N/NC(=O)CCn2nc(C)cc2C)ccc1O`, the inhibition is reported as inconclusive: 57.2%. With `COc1cc(OC)cc(C(=O)NCC(=O)N2CCN(c3ccc(O)cc3)CC2)c1` the inhibition was inconclusive: 53.9%. For `O=C1CC(=O)N(Cc2ccco2)C(=O)N1`, the inhibition was inconclusive: 80.9%. For `Cc1ccc(C(C2C(=O)CC(C)(C)CC2=O)C2C(=O)CC(C)(C)CC2=O)s1`, the inhibition was inconclusive: 60.3%. For `Cc1nc(C(=O)N(C)C)nn1-c1cc(Cl)ccc1Cl`, the inhibition was inactive: 9.33%. With `COc1cccc2c(C)c(C(=O)O)[nH]c12` the inhibition was inactive: 7.15%. For `CC(C(=O)Nc1ccc(O)cc1C(=O)O)N1C(=O)/C(=C\c2cccs2)SC1=S` (configuration not stated), the inhibition was inconclusive: 39.1%. `O=C(O)c1ccccc1NS(=O)(=O)c1cccc(-n2sc3ccccc3c2=O)c1` was tested, and the inhibition was inconclusive: 90.1%. With `Cc1[nH]c(=O)[nH]c(=O)c1S(=O)(=O)N1CCCC(C(=O)NCc2ccco2)C1` (configuration not stated) the inhibition was inactive: 4.98%. `CCCCNCCOCCOc1ccc(F)cc1` was tested, and the inhibition was inconclusive: 37.2%. `C[C@@H](C(=O)OCC(=O)NCCc1ccc(S(N)(=O)=O)cc1)N1C(=O)C2CCCCC2C1=O` (some centres not stated) was tested, and the inhibition was inactive: -3.1%. In the case of `O=C(NC1CCCCC1)Oc1cc2oc(=O)sc2cc1Br`, the inhibition is reported as inconclusive: 40.3%. `C=CCn1c(COc2ccccc2)nnc1SCC(=O)N/N=C/c1cc(Cl)ccc1O` was tested, and the inhibition was inactive: 11%. For `Cc1cccc(N(C)S(=O)(=O)c2ccc3[nH]cc(C(=O)N4CCOCC4)c(=O)c3c2)c1`, the inhibition was inactive: -3.07%. For `S=C(NCCc1ccccc1)N1CCN(C(=S)NCCc2ccccc2)CC1`, the inhibition was inactive: 1.96%. In the case of `Cc1ccc(/C=C2\SC(=S)N(/N=C/c3cc([N+](=O)[O-])ccc3O)C2=O)o1`, the inhibition is reported as inconclusive: 46.2%. For `Cc1ccc(N=Nc2c(N)n[nH]c2N)cc1`, the inhibition was inconclusive: 33.5%. With `COC(=O)c1cc(CN2CCN(c3ccccc3C)CC2)ccc1O` the inhibition was inconclusive: 22.1%. `Cc1ccc(S(=O)(=O)N2CCOCC2)cc1NC(=O)CNCc1ccccn1` was tested, and the inhibition was inconclusive: 35.7%. In the case of `O=C(Nc1ccccc1)c1cccc(N2C(=O)C3C4C=CC(C4)C3C2=O)c1` (configuration not stated), the inhibition is reported as inactive: 8.69%. In the case of `COc1cc(/C(C)=N/NC(=O)CSc2nc3ccccc3[nH]2)ccc1O`, the inhibition is reported as inconclusive: 75.1%. For `CCCc1nc2ccccc2c(=O)n1/N=C/c1ccccc1O`, the inhibition was inactive: 11.4%. `Cc1c(Cl)cccc1NC(=S)NCc1cccs1` was tested, and the inhibition was inactive: 5.46%. For `CN1CCC(NCCC(c2ccc(F)cc2)c2ccc(Cl)cc2)CC1` (configuration not stated), the inhibition was inconclusive: 33.4%. In the case of `CN(C)c1ccc(-c2nc3cnccn3c2Nc2ccc3c(c2)OCCO3)cc1`, the inhibition is reported as inconclusive: 46.3%. `COc1cc(C(=O)Nn2c(O)c(C3=c4ccccc4=NC3=O)sc2=S)ccc1O` was tested, and the inhibition was inconclusive: 32.8%. `CC1CCC2(CC1)NC(=O)N(CC(=O)Nc1cccc(S(=O)(=O)N3CCCC3)c1)C2=O` (configuration not stated) was tested, and the inhibition was inactive: 4.59%. For `COc1ccc2c(c1)-c1nc(/N=C/c3ccc(O)cc3)sc1CC2`, the inhibition was inconclusive: 38.2%. With `CCN(CC)c1ccc(/C=N/NS(=O)(=O)c2cccc([N+](=O)[O-])c2)cc1` the inhibition was inactive: 23.2%. With `O=S1(=O)N=C(Nc2ccc(N3CCOCC3)cc2)c2ccccc21` the inhibition was inactive: 2.07%. For `O=C(c1cccc(S(=O)(=O)N2CCc3ccccc3C2)c1)N1CCN(c2ccc(O)cc2)CC1`, the inhibition was inconclusive: 66.4%. For `Nc1cc(Cl)ccc1N1CCCCC1`, the inhibition was inactive: 1.75%. In the case of `CCN1C(=O)/C(=C/C=C2/CCCN2C)OC1=S`, the inhibition is reported as inactive: 5.72%. In the case of `O=C(N/N=C/c1ccc(O)c(O)c1)c1cccc(S(=O)(=O)N2CCCC2)c1`, the inhibition is reported as inconclusive: 97.3%. For `CN(C)c1ccc(/C=N/Nc2ccc(-n3ccnc3)nn2)cc1`, the inhibition was inconclusive: 33.9%. For `CCOC(=O)c1c(C)c(C(=O)Nc2ccc(N(C)C)cc2)c(C)n1CC`, the inhibition was inconclusive: 50.1%. In the case of `O=C(CCN1C(=O)/C(=C/c2ccco2)SC1=S)Nc1ccc(O)cc1C(=O)O`, the inhibition is reported as inconclusive: 43%. With `O=C(O)c1cc(-c2ccco2)nc2ccc(Br)cc12` the inhibition was inconclusive: 44.9%. `O=C(/C=C/c1ccc(O)c(O)c1)c1ccccc1O` was tested, and the inhibition was inconclusive: 68.7%. `c1ccc(Cc2nc3ccccc3[nH]2)cc1` was tested, and the inhibition was inactive: -0.91%. In the case of `CCOC(=O)CN1C(=O)S/C(=C/c2ccc(C)o2)C1=O`, the inhibition is reported as inactive: 13.6%. `O=C(c1ccc(OCCN2CCCCC2)cc1)c1c(-c2ccc(O)cc2)sc2cc(O)ccc12` was tested, and the inhibition was inconclusive: 64.7%. With `CN(C)c1ccc(NC(=O)COC(=O)Cn2nnc3ccccc32)cc1` the inhibition was inconclusive: 53.5%. In the case of `C/C(=N\NC(=O)Cn1nc(C)c([N+](=O)[O-])c1C)c1ccc(O)cc1`, the inhibition is reported as inconclusive: 33.7%. `COc1ccc(NC2CCCN(C(=O)c3csc(C(C)C)n3)C2)cc1OC` (configuration not stated) was tested, and the inhibition was inconclusive: 32.4%. `CC(=O)Oc1ccc2c(=O)c(Oc3ccccc3)c(C)oc2c1OC(C)=O` was tested, and the inhibition was inconclusive: 31.9%. For `O=C(Nc1ccc(N2CCCCC2)cc1)c1ccccc1`, the inhibition was inactive: 36.6%. With `CCC(=O)Nc1cc(-c2nn(C)c(=O)c3ccccc23)ccc1N1CCOCC1` the inhibition was inactive: 1.97%. With `Cc1c(Cl)cccc1NS(=O)(=O)c1ccc2c(c1)C1C=CCC1C(c1ccc(C(=O)O)cc1)N2` (configuration not stated) the inhibition was inconclusive: 34.3%. With `Oc1ccc(-c2csc(Nc3ccccn3)n2)cc1O` the inhibition was inconclusive: 42.8%.
